The other results are listed elsewhere or left out. Most values come without repeats; read them as rough.
How the values were obtained:
Assay in all cases: cell count relative to DMSO control; melanoma cells; higher = more viable cells
Conditions in all cases: library dose: standard library concentration; 72 h
G361 = tested on: G361
IPC-298 = tested on: IPC-298
IST-MEL1 = tested on: IST-MEL1
LOXIMVI = tested on: LOXIMVI
MEL-HO = tested on: MEL-HO
MeWo = tested on: MeWo
RPMI7951 = tested on: RPMI7951
RVH-421 = tested on: RVH-421
SkMel28 = tested on: SkMel28
SkMel30 = tested on: SkMel30
SkMel5 = tested on: SkMel5
UACC257 = tested on: UACC257
UACC62 = tested on: UACC62
WM115 = tested on: WM115
WM1716 = tested on: WM1716
WM1745 = tested on: WM1745
WM3526 = tested on: WM3526
SkMel2 = tested on: SkMel2
LB2518-MEL = tested on: LB2518-MEL
MZ2-MEL = tested on: MZ2-MEL
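Note: cells treated in 1,536-well plates, then fixed and DAPI-stained, with nuclei counted from automated high-throughput microscope images.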

SMILES	cell count (G361)	cell count (IPC-298)	cell count (IST-MEL1)	cell count (LOXIMVI)	cell count (MEL-HO)	cell count (MeWo)	cell count (RPMI7951)	cell count (RVH-421)	cell count (SkMel28)	cell count (SkMel30)	cell count (SkMel5)	cell count (UACC257)	cell count (UACC62)	cell count (WM115)	cell count (WM1716)	cell count (WM1745)	cell count (WM3526)	cell count (SkMel2)	cell count (LB2518-MEL)	cell count (MZ2-MEL)
Cc1ccc(NC(=O)c2cccc(N(C)C)c2)cc1NC(=O)c1ccc(O)cc1 + CC(C)(C)c1cnc(CSc2cnc(NC(=O)C3CCNCC3)s2)o1 [SNS-032] (first compound 10 µM, partner dose 0.05 µM)	76.7%	109%	90.3%	94%	79.7%	76.7%	30.9%	88.4%	83.6%	97.4%	64.8%	90.3%	73%	73.1%	82.2%	69.3%	81%			
CCCCCCCCc1ccc(CCC(N)(CO)CO)cc1 [fingolimod] + Cc1ccc(NC(=O)c2cccc(N(C)C)c2)cc1NC(=O)c1ccc(O)cc1 [ZM336372] (first compound 10 µM, partner dose 10 µM)	0.309%	73.2%	2.43%	0.433%	2.13%	9.08%	0.921%	3.07%		10.3%	29%	61.5%	13.8%	8.35%	22.5%	41%	8.88%	29.4%		
NC(=O)c1ccc(N(C(N)=O)c2c(F)cccc2F)nc1-c1ccc(F)cc1F + CS(=O)(=O)c1ccc(C(=O)Nc2ccc(Cl)c(-c3ccccn3)c2)c(Cl)c1 [vismodegib] (first compound 2 µM, partner dose 5 µM)	102%	98.3%	108%	113%	116%	121%	127%	78.7%	164%	130%	111%	104%	68.8%	133%	133%	87.4%	123%	107%		
NC(=O)c1ccc(N(C(N)=O)c2c(F)cccc2F)nc1-c1ccc(F)cc1F + CCc1ccc(CCOc2ccc(CC3SC(=O)NC3=O)cc2)nc1 [pioglitazone] (first compound 2 µM, partner dose 10 µM)	79.3%	96.6%	106%	111%	93.2%	88.7%	91.9%	97.1%	74.7%	116%	87.2%	107%	81.3%	93.6%	107%		103%			
CCCCCCCCc1ccc(CCC(N)(CO)CO)cc1 [fingolimod] + CN(NC(=O)CC(=O)NN(C)C(=S)c1ccccc1)C(=S)c1ccccc1 [STA4783] (first compound 10 µM, partner dose 0.03 µM)	1.87%	17.5%	18.8%	11.8%	11%	7.72%	3.54%	8.84%		5.23%	27.5%	39.2%	16.3%	14%	25.1%	14.4%	11.7%	0.105%	0.998%	3.15%
CCCCCCCCc1ccc(CCC(N)(CO)CO)cc1 [fingolimod] + NCC(=O)Nc1ccc(-n2nc(C(F)(F)F)cc2-c2ccc3c(ccc4ccccc43)c2)cc1 [OSU03012] (first compound 10 µM, partner dose 5 µM)		17.8%	4.6%	2.66%	2.09%	6.38%	0.642%	7.33%		9.31%	16.6%	25.5%	23%	14.6%	10.6%	1.83%	5.24%	0.18%	0.174%	1.88%
NC(=O)c1ccc(N(C(N)=O)c2c(F)cccc2F)nc1-c1ccc(F)cc1F + COCC[n+]1c2c(n(Cc3cnccn3)c1C)C(=O)c1ccccc1C2=O [YM155] (first compound 2 µM, partner dose 0.002 µM)	106%	47.9%	54.5%	46.5%	84.5%	61.6%	43.6%	121%	47%	89.3%	41.5%	29%	59.3%	74.9%	72.3%	87.8%	53%	32.7%		
CN(NC(=O)CC(=O)NN(C)C(=S)c1ccccc1)C(=S)c1ccccc1 + CC(C)CCN1c2nc(Nc3cc(F)c(O)c(F)c3)ncc2N(C)C(=O)C1C [BID1870] (first compound 0.03 µM, partner dose 1 µM)	36%	61.4%	47%	81.3%	72.1%	14.4%	66.3%	47.9%		75.7%	52.4%	82.3%	77.9%	15.7%	81.8%	42.9%	75.4%	52.8%	14.2%	97.5%
CCCCCCCCc1ccc(CCC(N)(CO)CO)cc1 [fingolimod] + Cn1cc(/C=C2\C(=O)Nc3cccnc32)c2ccccc21 [GW441756] (first compound 10 µM, partner dose 2 µM)	1.01%	81.7%	7.53%	28.7%	3.39%	12%	4.68%	6.34%		9.82%	49.9%	61.7%	12.8%	12.4%	57.6%		49.8%	0.107%	5.37%	60.7%
CC(C)(C)c1cnc(CSc2cnc(NC(=O)C3CCNCC3)s2)o1 + COc1cc2ncnc(Nc3ccc(Oc4ccccc4)cc3)c2cc1OC [SrcI1] (first compound 0.05 µM, partner dose 10 µM)	57.7%	75.4%	79.7%	46.6%	83.3%	75.7%	23.2%	77%	52.6%	84.5%	52.6%	71.9%	55.6%	55.4%	62.1%	54.1%	58.9%	74.8%		

Source: the supplement of paper PMC4604168 (melanoma cell lines)
